From patent US20240076343A1
Blank lines part the entries; values can stand above or below the binder they belong to.

Experiments:
Assay in all cases: cell-based or functional assay
[1] = target: high-affinity hIL-2 receptor (IL-2Rαβγ) on NK-92 cells (human) (UniProt P01589)
[2] = target: intermediate affinity hIL-2 receptor (hIL-2Rβγ) on TF1+IL-2Rβ cells (human) (UniProt P14784)
[3] = target: intermediate affinity hIL-2 receptor complex (IL-2Rβγ) (human) (UniProt P14784)
[4] = target: high-affinity hIL-2 receptor (IL-2Rαβγ) (human) (UniProt P01589)

B2: 1H3-hIgG1-L6-hIL-2 (F42R) (protein)
heavy: EVQLVESGGGLVQPGRSLKLSCAVSGFTFSDYAMAWVRQAPKKGLEWVATISYDGSRTYYRDSVKGRFTISRDNAKITLYLQMDSLRSEDTATYYCARHGSGYFDYWGQGVMVTVSS[not shown - about 450 residues with a human IgG1 Fc and changes]
light: DTVLTQSPALAVSPGERVTISCRASESVRTGVHWYQQKPGQQPKLLIYGASNLESGVPARFSGSGSGTDFTLTIDPVEADDTATYFCQQSWNDPFTFGSGTKLEIKRTVAAPSVFIFPPSDEQLKSGTASVVCLLNNFYPREAKVQWKVDNALQSGNSQESVTEQDSKDSTYSLSSTLTLSKADYEKHKVYACEVTHQGLSSPVTKSFNRGEC
Fold change from rhIL-2 (NK-92) [1]: 6 fold | Fold change from rhIL-2 (TF1 + IL-2Rβ) [2]: 0 fold | Fold change from rhIL-2 (TF1 + IL-2Rβ), pSTAT5 titration [3]: 0 fold | Fold change from rhIL-2 (NK-92), pSTAT5 titration [4]: 65 fold

B5: 1H3-hIgG1-L6-hIL-2 (E61K) (protein)
heavy: EVQLVESGGGLVQPGRSLKLSCAVSGFTFSDYAMAWVRQAPKKGLEWVATISYDGSRTYYRDSVKGRFTISRDNAKITLYLQMDSLRSEDTATYYCARHGSGYFDYWGQGVMVTVSS[not shown - about 450 residues with a human IgG1 Fc and changes]
light: B2 light
Fold change from rhIL-2 (NK-92) [1]: 1 fold | Fold change from rhIL-2 (TF1 + IL-2Rβ) [2]: 1 fold | Fold change from rhIL-2 (TF1 + IL-2Rβ), pSTAT5 titration [3]: 0 fold | Fold change from rhIL-2 (NK-92), pSTAT5 titration [4]: 14 fold

B6: 1H3-hIgG1-L6-hIL-2 (K43A) (protein)
heavy: EVQLVESGGGLVQPGRSLKLSCAVSGFTFSDYAMAWVRQAPKKGLEWVATISYDGSRTYYRDSVKGRFTISRDNAKITLYLQMDSLRSEDTATYYCARHGSGYFDYWGQGVMVTVSS[not shown - about 450 residues with a human IgG1 Fc and changes]
light: B2 light
Fold change from rhIL-2 (NK-92) [1]: 1 fold | Fold change from rhIL-2 (TF1 + IL-2Rβ) [2]: 2 fold | Fold change from rhIL-2 (TF1 + IL-2Rβ), pSTAT5 titration [3]: 0 fold | Fold change from rhIL-2 (NK-92), pSTAT5 titration [4]: 3 fold

B9: 1H3-hIgG1-L6-hIL-2 (E61R) (protein)
heavy: EVQLVESGGGLVQPGRSLKLSCAVSGFTFSDYAMAWVRQAPKKGLEWVATISYDGSRTYYRDSVKGRFTISRDNAKITLYLQMDSLRSEDTATYYCARHGSGYFDYWGQGVMVTVSS[not shown - about 450 residues with a human IgG1 Fc and changes]
light: B2 light
Fold change from rhIL-2 (NK-92) [1]: 1 fold | Fold change from rhIL-2 (TF1 + IL-2Rβ) [2]: 1 fold | Fold change from rhIL-2 (TF1 + IL-2Rβ), pSTAT5 titration [3]: 0 fold | Fold change from rhIL-2 (NK-92), pSTAT5 titration [4]: 22 fold

B11: 1H3-hIgG1-L6-hIL-2 (D20Y) (protein)
heavy: EVQLVESGGGLVQPGRSLKLSCAVSGFTFSDYAMAWVRQAPKKGLEWVATISYDGSRTYYRDSVKGRFTISRDNAKITLYLQMDSLRSEDTATYYCARHGSGYFDYWGQGVMVTVSS[not shown - about 450 residues with a human IgG1 Fc and changes]
light: B2 light
Fold change from hIL-2 (NK-92) [1]: 17 fold | Fold change from rhIL-2 (TF1 + IL-2Rβ) [2]: 383 fold | Fold change from rhIL-2 (NK-92), pSTAT5 titration [4]: > 10000 fold

B12: 1H3-hIgG1-L6-hIL-2 (E61A) (protein)
heavy: EVQLVESGGGLVQPGRSLKLSCAVSGFTFSDYAMAWVRQAPKKGLEWVATISYDGSRTYYRDSVKGRFTISRDNAKITLYLQMDSLRSEDTATYYCARHGSGYFDYWGQGVMVTVSS[not shown - about 450 residues with a human IgG1 Fc and changes]
light: B2 light
Fold change from rhIL-2 (NK-92) [1]: 0 fold | Fold change from rhIL-2 (TF1 + IL-2Rβ) [2]: 1 fold | Fold change from rhIL-2 (TF1 + IL-2Rβ), pSTAT5 titration [3]: 0 fold | Fold change from rhIL-2 (NK-92), pSTAT5 titration [4]: 3 fold

B13: 1H3-hIgG1-L6-hIL-2 (N88F) (protein)
heavy: EVQLVESGGGLVQPGRSLKLSCAVSGFTFSDYAMAWVRQAPKKGLEWVATISYDGSRTYYRDSVKGRFTISRDNAKITLYLQMDSLRSEDTATYYCARHGSGYFDYWGQGVMVTVSS[not shown - about 450 residues with a human IgG1 Fc and changes]
light: B2 light
Fold change from hIL-2 (NK-92) [1]: 19 fold | Fold change from rhIL-2 (TF1 + IL-2Rβ) [2]: > 10000 fold | Fold change from rhIL-2 (TF1 + IL-2Rβ), pSTAT5 titration [3]: > 10000 fold

B14: 1H3-hIgG1-L6-hIL-2 (F42D) (protein)
heavy: EVQLVESGGGLVQPGRSLKLSCAVSGFTFSDYAMAWVRQAPKKGLEWVATISYDGSRTYYRDSVKGRFTISRDNAKITLYLQMDSLRSEDTATYYCARHGSGYFDYWGQGVMVTVSS[not shown - about 450 residues with a human IgG1 Fc and changes]
light: B2 light
Fold change from rhIL-2 (NK-92) [1]: 10 fold | Fold change from rhIL-2 (TF1 + IL-2Rβ) [2]: 2 fold | Fold change from rhIL-2 (TF1 + IL-2Rβ), pSTAT5 titration [3]: 0 fold | Fold change from rhIL-2 (NK-92), pSTAT5 titration [4]: 193 fold

B16: 1H3-hIgG1-L6-hIL-2 (N88E) (protein)
heavy: EVQLVESGGGLVQPGRSLKLSCAVSGFTFSDYAMAWVRQAPKKGLEWVATISYDGSRTYYRDSVKGRFTISRDNAKITLYLQMDSLRSEDTATYYCARHGSGYFDYWGQGVMVTVSS[not shown - about 450 residues with a human IgG1 Fc and changes]
light: B2 light
Fold change from hIL-2 (NK-92) [1]: 10 fold | Agonistic Activity (TF1 + IL-2Rβ) [2]: 50% | Fold change from rhIL-2 (TF1 + IL-2Rβ) [2]: 1160 fold | Fold change from rhIL-2 (TF1 + IL-2Rβ), pSTAT5 titration [3]: > 10000 fold

B17: 1H3-hIgG1-L6-hIL-2 (I92Y) (protein)
heavy: EVQLVESGGGLVQPGRSLKLSCAVSGFTFSDYAMAWVRQAPKKGLEWVATISYDGSRTYYRDSVKGRFTISRDNAKITLYLQMDSLRSEDTATYYCARHGSGYFDYWGQGVMVTVSS[not shown - about 450 residues with a human IgG1 Fc and changes]
light: B2 light
Fold change from hIL-2 (NK-92) [1]: 1 fold | Fold change from rhIL-2 (TF1 + IL-2Rβ) [2]: 1 fold | Fold change from rhIL-2 (TF1 + IL-2Rβ), pSTAT5 titration [3]: 1 fold

B18: 1H3-hIgG1-L6-hIL-2 (I92S) (protein)
heavy: EVQLVESGGGLVQPGRSLKLSCAVSGFTFSDYAMAWVRQAPKKGLEWVATISYDGSRTYYRDSVKGRFTISRDNAKITLYLQMDSLRSEDTATYYCARHGSGYFDYWGQGVMVTVSS[not shown - about 450 residues with a human IgG1 Fc and changes]
light: B2 light
Fold change from hIL-2 (NK-92) [1]: 1 fold | Fold change from rhIL-2 (TF1 + IL-2Rβ) [2]: 10 fold | Fold change from rhIL-2 (TF1 + IL-2Rβ), pSTAT5 titration [3]: 8 fold

B19: 1H3-hIgG1-L6-hIL-2 (D84A) (protein)
heavy: EVQLVESGGGLVQPGRSLKLSCAVSGFTFSDYAMAWVRQAPKKGLEWVATISYDGSRTYYRDSVKGRFTISRDNAKITLYLQMDSLRSEDTATYYCARHGSGYFDYWGQGVMVTVSS[not shown - about 450 residues with a human IgG1 Fc and changes]
light: B2 light
Fold change from hIL-2 (NK-92) [1]: 1 fold | Fold change from rhIL-2 (TF1 + IL-2Rβ) [2]: 21 fold | Fold change from rhIL-2 (TF1 + IL-2Rβ), pSTAT5 titration [3]: 14 fold

Further lines, results first:

Fold change from rhIL-2 (NK-92) [1]: 0 fold | Fold change from rhIL-2 (TF1 + IL-2Rβ) [2]: 1 fold | Fold change from rhIL-2 (TF1 + IL-2Rβ), pSTAT5 titration [3]: 0 fold | Fold change from rhIL-2 (NK-92), pSTAT5 titration [4]: 2 fold
B1: 1H3-hIgG1-L6-hIL-2 (R38A) (protein)
heavy: EVQLVESGGGLVQPGRSLKLSCAVSGFTFSDYAMAWVRQAPKKGLEWVATISYDGSRTYYRDSVKGRFTISRDNAKITLYLQMDSLRSEDTATYYCARHGSGYFDYWGQGVMVTVSS[not shown - about 450 residues with a human IgG1 Fc and changes]
light: B2 light

Fold change from rhIL-2 (NK-92) [1]: 27 fold | Fold change from rhIL-2 (TF1 + IL-2Rβ) [2]: 1 fold | Fold change from rhIL-2 (NK-92), pSTAT5 titration [4]: 598 fold
B3: 1H3-hIgG1-L6-hIL-2 (R38D/E61R/K43E) (protein)
heavy: EVQLVESGGGLVQPGRSLKLSCAVSGFTFSDYAMAWVRQAPKKGLEWVATISYDGSRTYYRDSVKGRFTISRDNAKITLYLQMDSLRSEDTATYYCARHGSGYFDYWGQGVMVTVSS[not shown - human IgG1 constant region]SGGGGSAPTSSSTKKTQLQLEHLLLDLQMILNGINNYKNPKLTDMLTFEFYMPKKATELKHLQCLERELKPLEEVLNLAQSKNFHLRPRDLISNINVIVLELKGSETTFMCEYADETATIVEFLNRWITFCQSIISTLT
light: B2 light

Fold change from rhIL-2 (NK-92) [1]: 36 fold | Fold change from rhIL-2 (TF1 + IL-2Rβ) [2]: 2 fold | Agonistic Activity (NK-92), pSTAT5 titration [4]: 80% | Fold change from rhIL-2 (NK-92), pSTAT5 titration [4]: 479 fold
B4: 1H3-hIgG1-L6-hIL-2 (R38D/E61R) (protein)
heavy: EVQLVESGGGLVQPGRSLKLSCAVSGFTFSDYAMAWVRQAPKKGLEWVATISYDGSRTYYRDSVKGRFTISRDNAKITLYLQMDSLRSEDTATYYCARHGSGYFDYWGQGVMVTVSS[not shown - about 450 residues with a human IgG1 Fc and changes]
light: B2 light

Fold change from hIL-2 (NK-92) [1]: 9 fold | Fold change from rhIL-2 (TF1 + IL-2Rβ) [2]: > 10000 fold | Fold change from rhIL-2 (TF1 + IL-2Rβ), pSTAT5 titration [3]: > 10000 fold
B7: 1H3-hIgG1-L6-hIL-2 (N88I) (protein)
heavy: EVQLVESGGGLVQPGRSLKLSCAVSGFTFSDYAMAWVRQAPKKGLEWVATISYDGSRTYYRDSVKGRFTISRDNAKITLYLQMDSLRSEDTATYYCARHGSGYFDYWGQGVMVTVSS[not shown - about 450 residues with a human IgG1 Fc and changes]
light: B2 light

Fold change from rhIL-2 (NK-92) [1]: 4 fold | Fold change from rhIL-2 (TF1 + IL-2Rβ) [2]: 0 fold | Fold change from rhIL-2 (TF1 + IL-2Rβ), pSTAT5 titration [3]: 0 fold | Fold change from rhIL-2 (NK-92), pSTAT5 titration [4]: 81 fold
B8: 1H3-hIgG1-L6-hIL-2 (Y45R) (protein)
heavy: EVQLVESGGGLVQPGRSLKLSCAVSGFTFSDYAMAWVRQAPKKGLEWVATISYDGSRTYYRDSVKGRFTISRDNAKITLYLQMDSLRSEDTATYYCARHGSGYFDYWGQGVMVTVSS[not shown - about 450 residues with a human IgG1 Fc and changes]
light: B2 light

Fold change from hIL-2 (NK-92) [1]: 22 fold | Fold change from rhIL-2 (TF1 + IL-2Rβ) [2]: > 10000 fold | Fold change from rhIL-2 (TF1 + IL-2Rβ), pSTAT5 titration [3]: > 10000 fold
B10: 1H3-hIgG1-L6-hIL-2 (N88Y) (protein)
heavy: EVQLVESGGGLVQPGRSLKLSCAVSGFTFSDYAMAWVRQAPKKGLEWVATISYDGSRTYYRDSVKGRFTISRDNAKITLYLQMDSLRSEDTATYYCARHGSGYFDYWGQGVMVTVSS[not shown - about 450 residues with a human IgG1 Fc and changes]
light: B2 light

Fold change from rhIL-2 (NK-92) [1]: 3 fold | Fold change from rhIL-2 (TF1 + IL-2Rβ) [2]: 0 fold | Fold change from rhIL-2 (TF1 + IL-2Rβ), pSTAT5 titration [3]: 1 fold | Fold change from rhIL-2 (NK-92), pSTAT5 titration [4]: 55 fold
B15: 1H3-hIgG1-L6-hIL-2 (R38D) (protein)
heavy: EVQLVESGGGLVQPGRSLKLSCAVSGFTFSDYAMAWVRQAPKKGLEWVATISYDGSRTYYRDSVKGRFTISRDNAKITLYLQMDSLRSEDTATYYCARHGSGYFDYWGQGVMVTVSS[not shown - about 450 residues with a human IgG1 Fc and changes]
light: B2 light
